The results in this text go back to article PMC4336329 (PLoS ONE, 2015).

Among all 310,000 compounds or so, about 14,000 (4.5%) showed an effect of 50% or more. The effect is printed as a negative number. Some of the results follow.
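Also: peak tail current of the secondary pulse compared with the same well before compound.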

In this assay the target is human ether-à-go-go-related gene (hERG) potassium channel (human, UniProt Q12809). Put plainly: primary screen, population patch clamp on CHO cells stably expressing hERG.
human ether-à-go-go-related gene (hERG) potassium channel, sequence (Q12809 whole entry, looked up): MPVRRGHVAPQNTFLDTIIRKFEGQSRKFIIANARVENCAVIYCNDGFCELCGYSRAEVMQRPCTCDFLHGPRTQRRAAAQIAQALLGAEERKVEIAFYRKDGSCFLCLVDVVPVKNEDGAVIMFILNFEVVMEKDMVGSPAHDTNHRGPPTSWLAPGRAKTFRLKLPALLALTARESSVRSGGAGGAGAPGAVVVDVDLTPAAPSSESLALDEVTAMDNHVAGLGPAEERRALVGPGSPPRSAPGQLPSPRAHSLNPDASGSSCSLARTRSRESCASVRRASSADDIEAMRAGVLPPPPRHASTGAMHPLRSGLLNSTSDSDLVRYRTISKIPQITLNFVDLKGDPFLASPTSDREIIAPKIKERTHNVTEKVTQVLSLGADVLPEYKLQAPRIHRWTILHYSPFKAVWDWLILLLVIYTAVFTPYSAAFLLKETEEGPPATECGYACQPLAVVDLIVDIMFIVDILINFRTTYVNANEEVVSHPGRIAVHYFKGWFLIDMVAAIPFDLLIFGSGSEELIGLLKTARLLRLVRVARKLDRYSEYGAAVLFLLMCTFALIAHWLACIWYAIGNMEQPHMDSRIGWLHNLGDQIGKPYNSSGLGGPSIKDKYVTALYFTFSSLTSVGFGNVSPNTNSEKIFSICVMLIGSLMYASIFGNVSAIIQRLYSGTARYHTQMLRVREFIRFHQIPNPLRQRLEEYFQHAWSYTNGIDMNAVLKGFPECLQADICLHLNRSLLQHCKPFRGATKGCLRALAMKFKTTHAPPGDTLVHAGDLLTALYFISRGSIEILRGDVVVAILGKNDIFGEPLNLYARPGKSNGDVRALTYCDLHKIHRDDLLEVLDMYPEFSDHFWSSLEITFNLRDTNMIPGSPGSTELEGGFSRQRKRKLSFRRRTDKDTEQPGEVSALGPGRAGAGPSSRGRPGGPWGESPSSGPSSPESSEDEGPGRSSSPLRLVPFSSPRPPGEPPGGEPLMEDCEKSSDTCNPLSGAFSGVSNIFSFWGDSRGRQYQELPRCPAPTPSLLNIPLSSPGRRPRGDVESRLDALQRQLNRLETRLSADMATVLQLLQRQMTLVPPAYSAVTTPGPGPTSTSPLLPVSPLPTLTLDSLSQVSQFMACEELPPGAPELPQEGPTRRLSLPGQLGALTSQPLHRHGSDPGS
In the case of `CCOC(=O)c1nc(N/N=C/c2ccccc2)sc1Br`, the “hERG current change (%, negative = inhibition) at 10uM” value was found to be 0.605%.
The value for `CCCCC(=O)NC(c1ccco1)c1cc(Cl)c2cccnc2c1O` (centres unmarked) was -31.6%; that for `CC1CCc2sc(C(=O)N/N=C/c3ccc([N+](=O)[O-])cc3)cc2C1` (centres unmarked) was -1.2%; that for `CCC(C)n1nccc1NC(=O)C(C)OC(=O)c1cc2ccccc2[nH]1` (centres unmarked) was -16.9%.
The value for `COc1ccc(NC(=S)N(CCCN2CCOCC2)Cc2cn(C)c3ccccc23)cc1OC` was -0.53%; that for `CCC(=O)NNC(=S)NC(=O)c1ccc(C)cc1` was 22.4%; that for `CC(C)C[C@H](NC(=O)c1[nH]cnc1C(=O)N[C@@H](Cc1ccccc1)C(=O)OCc1ccccc1)C(=O)OC(C)(C)C` was -1.12%.
Then `Fc1ccc(COc2ccc(-c3nnco3)cc2)cc1`, with -2.32%.
On to `CCCOc1ccc(C(=O)NNC(=O)CCNC(=O)c2ccccc2Cl)cc1OC`, for which the “hERG current change (%, negative = inhibition) at 10uM” value is -7.19%.
The value for `O=C(CNS(=O)(=O)c1ccc(Br)cc1)OCc1cc(=O)n2cc(Br)ccc2n1` was -26%; that for `Cc1nc2sc(C(=O)Nc3ccccc3)c(N)c2c(C)c1[N+](=O)[O-]` was -6.05%.
`CS(=O)(=O)c1ccc(Cl)c(NC(=O)COC(=O)c2cccc(S(=O)(=O)N3CCCCC3)c2)c1`: the “hERG current change (%, negative = inhibition) at 10uM” value is listed as -30.9%.
As to `O=C(OCc1ccc([N+](=O)[O-])cc1)C1CC(=O)N(CCc2ccccc2)C1` (centres unmarked), the “hERG current change (%, negative = inhibition) at 10uM” value was -69.4%.
Then `O=C(CSc1ccccc1)Nc1nnc(C2CC2)s1`, with 16.9%; and `O=c1[nH]c(O)c(N=Nc2cccc(S(=O)(=O)N3CCOCC3)c2)c(=O)[nH]1`, with -73.7%.
Then `N/C(=N\OC(=O)Cc1ccccc1[N+](=O)[O-])c1ccc(Br)cc1`, with 26.1%; and `COCC(=O)N(Cc1ccc(OC)cc1)Cc1nc2ccccc2c(=O)[nH]1`, with 8.13%; and `CC(Oc1ccccc1)C(=O)OCC(=O)NC(=O)NC1CCCCC1` (centres unmarked), with 3.72%.
The value for `NC(=NC(=O)c1ccc(Cl)cc1)N1N=CCC1c1ccccc1` (centres unmarked) was 10.6%.
`COc1ccccc1NC(=O)COC(=O)c1ccccc1OCC(=O)Nc1ccc(SC(F)F)cc1`: the “hERG current change (%, negative = inhibition) at 10uM” value turned out to be 1.67%.
The value for `O=S(=O)(Nc1ccc2cn[nH]c2c1)c1ccc(Cl)s1` was 21.4%.
For the molecule `CSc1ccccc1NC(=O)CN(C)C(=O)c1ccc2c(c1)OCCO2`, the “hERG current change (%, negative = inhibition) at 10uM” value stood at 5.66%.
The value for `COc1cccc(/C=C2\N=C(c3cncc(Br)c3)OC2=O)c1` was 11.8%.
